The record followed here is the antibiotic and cytotoxicity screens of Wong et al. (2023).

Assay [1] deals with HSkMC (human skeletal muscle cells). Put plainly: cytotoxicity call (relative viability < 0.9). The following applies: 10 µM.
The subject of assay [2] is HepG2. In words: cytotoxicity call (relative viability < 0.9). As to conditions: 10 µM.
The test system of assay [3] is S. aureus RN4220. Put plainly: growth inhibition call (relative growth <= 0.2). The following applies: 50 µM.

The list shows a part of the results.

For `C[C@@H]1CN([C@H](C)CO)C(=O)c2c(c3ccccc3n2C)-c2ccccc2CO[C@@H]1CN(C)S(=O)(=O)c1cn(C)cn1`, the cytotoxicity call in assay [1] and in assay [2] was “inactive” in each case. Besides, the growth inhibition call in assay [3] is “inactive”.
Consider `C[C@@H]1CN([C@@H](C)CO)C(=O)c2cc(N(C)C)ccc2O[C@@H](C)CCCCO[C@@H]1CN(C)CC1CCCCC1`, for which the cytotoxicity call in assay [1] and in assay [2] was “inactive” each time. The growth inhibition call in assay [3] is “inactive”.
As for `OC1OC(c2ccc(Cl)c(Cc3ccc(OC4CCOC4)cc3)c2)C(O)C(O)C1O` (centres undefined), the cytotoxicity call in assay [1] and in assay [2] was “inactive” throughout. The growth inhibition call in assay [3] was “inactive”.
`C[C@@H]1CN([C@H](C)CO)C(=O)Cc2cc(NS(=O)(=O)c3ccc(F)cc3)ccc2O[C@@H]1CN(C)S(=O)(=O)c1ccc(F)cc1`: the cytotoxicity call in assay [1] and in assay [2] was “inactive” each time. Besides, the growth inhibition call in assay [3] was “inactive”.
Regarding `CC(O)CN(CCN(CC(C)O)CC(C)O)CC(C)O` (centres undefined), the cytotoxicity call in assay [1] and in assay [2] was “inactive” each time. In assay [3], the growth inhibition call is “inactive”.
For the compound `C[C@@H]1CN([C@H](C)CO)C(=O)c2cccc(NC(=O)Nc3ccccc3)c2O[C@@H]1CN(C)C(=O)Nc1cccc2ccccc12`, the cytotoxicity call in assay [1] and in assay [2] was “inactive” throughout. In assay [3], the growth inhibition call was “inactive”.
With `Cc1ccc(S(=O)(=O)Nc2ccc3c(c2)C(=O)N([C@@H](C)CO)C[C@H](C)[C@@H](CN(C)Cc2ccc(Oc4ccccc4)cc2)O3)cc1`, the cytotoxicity call in assay [1] and in assay [2] was “inactive” each time. In addition, the growth inhibition call in assay [3] was “inactive”.
As for `C[C@@H]1CN([C@H](C)CO)C(=O)Cc2cc(NC(=O)c3ccncc3)ccc2O[C@H]1CN(C)Cc1ccc(Oc2ccccc2)cc1`, the cytotoxicity call in assay [1] and in assay [2] was “inactive” throughout. For the same compound, the growth inhibition call in assay [3] is “inactive”.
Consider `C[C@H]1CN([C@@H](C)CO)C(=O)c2cc(NS(=O)(=O)c3ccc(Cl)cc3)ccc2O[C@@H]1CN(C)C(=O)Nc1cccc2ccccc12`, for which the cytotoxicity call in assay [1] and in assay [2] was “inactive” each time. For the same compound, the growth inhibition call in assay [3] was “inactive”.
As to `C[C@H](CO)N1C[C@H](C)[C@@H](CN(C)CC2CCOCC2)Oc2cc(C#Cc3cccnc3)ccc2S1(=O)=O`, the cytotoxicity call in assay [1] and in assay [2] was “inactive” each time. In addition, in assay [3], the growth inhibition call is “inactive”.
Turning to `O=C(C[C@H]1C=C[C@H](NC(=O)c2cccc(F)c2)[C@@H](CO)O1)NCCN1CCCC1`, the cytotoxicity call in assay [1] and in assay [2] was “inactive” each time. Further, the growth inhibition call in assay [3] is “inactive”.
Turning to `C[C@@H]1CN([C@H](C)CO)C(=O)c2cc(-c3cccc(C#N)c3)cnc2O[C@@H]1CN(C)C(=O)C1CCOCC1`, the cytotoxicity call in assay [1] and in assay [2] was “inactive” throughout. Besides, in assay [3], the growth inhibition call is “inactive”.
As for `Cc1noc(C)c1S(=O)(=O)N(C)C[C@@H]1OCCCC[C@@H](C)Oc2ccc(NS(C)(=O)=O)cc2C(=O)N([C@@H](C)CO)C[C@H]1C`, the cytotoxicity call in assay [1] and in assay [2] was “inactive” each time. For the same compound, the growth inhibition call in assay [3] was “inactive”.
In the case of `Cn1cnc(S(=O)(=O)N[C@@H]2CC[C@H](CC(=O)Nc3ccccc3)O[C@H]2CO)c1`, the cytotoxicity call in assay [1] and in assay [2] was “inactive” each time. Besides, the growth inhibition call in assay [3] is “inactive”.
On to `C[C@@H]1CCCCO[C@@H](CN(C)C(=O)Nc2ccc(F)cc2)[C@H](C)CN([C@H](C)CO)C(=O)c2cc(NS(=O)(=O)c3ccccc3)ccc2O1`, for which the cytotoxicity call in assay [1] and in assay [2] was “inactive” in each case. Also, in assay [3], the growth inhibition call is “inactive”.
On to `C[C@@H]1CN([C@@H](C)CO)C(=O)c2cc(NS(C)(=O)=O)ccc2O[C@H]1CN(C)C(=O)NC1CCCCC1`, for which the cytotoxicity call in assay [1] and in assay [2] was “inactive” in each case. Besides, in assay [3], the growth inhibition call was “inactive”.
As to `C[C@@H]1CN([C@H](C)CO)C(=O)c2cc(C#C[C@@H](C)O)cnc2O[C@H]1CN(C)C(=O)CN1CCOCC1`, the cytotoxicity call in assay [1] and in assay [2] was “inactive” throughout. Besides, the growth inhibition call in assay [3] was “inactive”.
As to `C[C@H]1CN([C@@H](C)CO)S(=O)(=O)c2ccc(-c3ccc(C(=O)N(C)C)cc3)cc2O[C@@H]1CN(C)C(=O)Cc1ccccn1`, the cytotoxicity call in assay [1] and in assay [2] was “inactive” in each case. The growth inhibition call in assay [3] was “inactive”.
For `CC(C)NC(=O)N(C)C[C@@H]1Oc2ccc(NS(=O)(=O)c3ccc(F)cc3)cc2C(=O)N([C@@H](C)CO)C[C@H]1C`, the cytotoxicity call in assay [1] and in assay [2] was “inactive” in each case. In addition, in assay [3], the growth inhibition call was “inactive”.
On to `O=C(CCCCCNC(=O)OC[C@H]1C(=O)O[C@@H](Cc2ccccc2)[C@H]2[C@H]3C(=CC(=O)[C@@H]3C3CC3)CN21)NO`, for which the cytotoxicity call in assay [1] and in assay [2] was “inactive” each time. Besides, in assay [3], the growth inhibition call is “inactive”.
For `CCC(=O)Nc1ccc2c(c1)OC[C@@H](C)N(Cc1ccc(-c3ccccn3)cc1)C[C@@H](C)[C@H](OC)CN(C)C2=O`, the cytotoxicity call in assay [1] and in assay [2] was “inactive” each time. For the same compound, the growth inhibition call in assay [3] was “inactive”.
As for `C[C@H](CO)N1C[C@H](C)[C@@H](CN(C)Cc2ccc(Oc3ccccc3)cc2)Oc2c(NS(=O)(=O)c3ccc(Cl)cc3)cccc2C1=O`, the cytotoxicity call in assay [1] and in assay [2] was “inactive” in each case. The growth inhibition call in assay [3] is “inactive”.
For the compound `COc1ccc(CN2C[C@H](C)[C@H](OC)CN(C)C(=O)c3cc(NC(=O)c4nc5ccccc5s4)ccc3OC[C@@H]2C)cc1`, the cytotoxicity call in assay [1] and in assay [2] was “inactive” throughout. Also, the growth inhibition call in assay [3] was “inactive”.
With `C[C@@H]1CN([C@H](C)CO)C(=O)CCCn2cc(nn2)CO[C@@H]1CN(C)Cc1ccc2c(c1)OCCN2C`, the cytotoxicity call in assay [1] and in assay [2] was “inactive” in each case. The growth inhibition call in assay [3] was “inactive”.
Consider `COc1ccccc1C#Cc1cnc2c(c1)C(=O)N([C@H](C)CO)C[C@@H](C)[C@H](CN(C)S(=O)(=O)c1cn(C)cn1)O2`, for which the cytotoxicity call in assay [1] and in assay [2] was “active” in each case. Further, the growth inhibition call in assay [3] was “inactive”.
On to `Cn1cnc(S(=O)(=O)N[C@H]2C=C[C@@H](CC(=O)N3CCN(c4ccccc4)CC3)O[C@@H]2CO)c1`, for which the cytotoxicity call in assay [1] and in assay [2] was “inactive” in each case. Besides, in assay [3], the growth inhibition call is “inactive”.
With `C[C@H](CO)N1C[C@H](C)[C@@H](CN(C)S(=O)(=O)c2ccc(Cl)cc2)Oc2ccc(NC(=O)Nc3cccc4ccccc34)cc2CC1=O`, the cytotoxicity call in assay [1] and in assay [2] was “inactive” throughout. For the same compound, the growth inhibition call in assay [3] was “inactive”.
Turning to `C[C@H]1CCCCO[C@H](CN(C)Cc2ccccc2)[C@@H](C)CN([C@@H](C)CO)C(=O)c2cc(NC(=O)CCC(F)(F)F)ccc2O1`, the cytotoxicity call in assay [1] and in assay [2] was “inactive” each time. For the same compound, the growth inhibition call in assay [3] is “inactive”.
